In all, about 33,000 sequences were measured (“E-score (-0.5 to 0.5)”: median about -0.056, highest 2% from about 0.38 on). The list shows a part of the results.

The target of this test is Stb4 (UniProt P50104). Description: PBM E-score (8-mer binding enrichment) (E-score (-0.5 to 0.5)); higher = stronger / more preferred TF binding; most listed sequences are background and not binding sites. The settings on record: protein concentration: 200 nM; construct: GST-DNA-binding domain. In a few lines:
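Bound GST-tagged yeast transcription factors, applied at about 100-200 nM to double-stranded universal all-10-mer Agilent arrays, were detected with fluorescent anti-GST. Scans were normalised with masliner. A modified Wilcoxon-Mann-Whitney statistic, the E-score, was assigned to each ungapped eight-base word pooled with its reverse complement by the Universal PBM Analysis Suite.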
For TATCAGCA, the “PBM E-score” value was -0.165. In the case of ATATGTAA it was -0.226. With ATAATGGG the figure was -0.0513.

For the sequence CAAGATAA, the “PBM E-score” value was -0.11. In the case of CGGACGAC it was 0.164. In the case of ACTCCGTA it was 0.0548.

With AGACCAGC, the “PBM E-score” value is -0.326. With GACCGCAC the figure was 0.0279; with CTTATCGC, 0.0012. As to TGGCACCA, the “PBM E-score” value was -0.156. With ACGGTTCC the figure was 0.113. For ATTGTGGG, the “PBM E-score” value is 0.00532. In the case of GCAGTCCA it was -0.229; in that of AGCGCGAT, -0.0326; in that of GCTCCGAC, 0.238. With ATCTGGGC the figure was -0.0904; with ATTCTGCA, -0.176; with ATGCGCCA, -0.113. In the case of AGACGTTC it was -0.0788; in that of ACCTAAAG, -0.0577. Take GTCAAGAC: the “PBM E-score” value was found to be 0.00172. In the case of CCAAACCG it was 0.124; in that of AGGGAGAA, -0.0826; in that of CAACCAAA, 0.0796. With ACAAGTAG the figure was -0.182; with AACTCTAC, -0.138. Consider CCACTACA, for which the “PBM E-score” value was -0.284.

For CATTGCTA, the “PBM E-score” value is -0.158. Turning to CCTCTTAA, the “PBM E-score” value was -0.0505. With ATTTCGCA the figure was 0.0506; with AAGGTCTG, -0.102. In the case of CCAATTCG it was 0.077.

Consider AGTAAGCC, for which the “PBM E-score” value was 0.0217. In the case of AGATAAGC it was -0.0828; in that of CGTAAGTA, 0.0835. With CTCACATC the figure was -0.02; with CCCAAAGG, -0.118; with ACGATCGG, 0.246. In the case of CCTGAGAC it was -0.208.

For CGCCGTTC, the “PBM E-score” value worked out at 0.132. In the case of GAGCTACA it was -0.033; in that of CATATATA, 0.0928. In the case of AGGGACCC it was -0.0037; in that of AGTAAAGC, 0.0678. With TCCTTTCA the figure was -0.0195; with AACAGGAC, -0.0941.

For the sequence AACCGCCG, the “PBM E-score” value stood at 0.22. In the case of AGACAATG it was 0.0133; in that of AAATGCGC, -0.041; in that of GTGCAATA, -0.189. With AACCGTTA the figure was -0.1. In the case of GACCCATA it was -0.0346; in that of GATAATGA, -0.00765. Consider AGGTGTCC, for which the “PBM E-score” value was -0.117.

With AAGAAAGT, the “PBM E-score” value was 0.0782. With ACTCTATA the figure was 0.127. In the case of CATCGTAA it was -0.0818; in that of GGTCATCA, -0.197; in that of ACTCACGC, -0.151.

As to GACCCCTC, the “PBM E-score” value was -0.0605. In the case of GACCACAC it was -0.0281; in that of GCGCGCGC, 0.0819; in that of GGCCCTAC, -0.0358. With CCTTCTCA the figure was -0.243; with CTTTGTGA, -0.0394. In the case of ACCCGGCC it was 0.297.

Regarding AAAGAGTA, the “PBM E-score” value was -0.136. With AGCTTTGA the figure was -0.0782; with CGGAAGTC, 0.414.

Consider CCTGAAAG, for which the “PBM E-score” value is -0.257.

On to GATTGGTA, for which the “PBM E-score” value turned out to be 0.0149. With AGGCAACG, the “PBM E-score” value is -0.0947. As to CCTCGAAG, the “PBM E-score” value was -0.0456.

For the sequence AGGTTATA, the “PBM E-score” value is -0.0431.

As for ATAAAGTC, the “PBM E-score” value is -0.0705. In the case of CCGTAGTA it was 0.162; in that of GGCTTCAA, -0.066. As for GCTGAACA, the “PBM E-score” value is -0.0735. In the case of ATACTGAT it was -0.0055; in that of CAGGGTAC, -0.123. In the case of CAGCCGGC, the “PBM E-score” value was 0.318.

With AACCCGAT, the “PBM E-score” value is 0.285. In the case of AGAAGGCT it was -0.272; in that of GGGAGTGA, 0.046; in that of CTAACCAA, -0.111. In the case of CCTGACCC it was 0.0145.

Take CAGCGCTA: the “PBM E-score” value was -0.0971. Turning to TACGGTAA, the “PBM E-score” value came out at 0.111. In the case of CTATACTC it was -0.0193.

With AGCCGCCC, the “PBM E-score” value was determined as 0.0992.

For the sequence CTCGCGGC, the “PBM E-score” value amounted to 0.131. With AGTCGCAC the figure was -0.174; with AATTCTTG, -0.153. For the sequence CGATTCCC, the “PBM E-score” value was 0.137.

(Values after the supplement of paper PMC3334620.)
